Laboratory results as given in the supplement of paper PMC3334620.
Over roughly 33,000 sequences, “E-score (-0.5 to 0.5)” has its median near -0.054; the highest 2% begin near 0.35. The list shows a part of the results.

These sequences were tested against T1, Stb5 (UniProt P38699) (assay: PBM E-score (8-mer binding enrichment) (E-score (-0.5 to 0.5)); higher = stronger / more preferred TF binding; most listed sequences are background and not binding sites). Conditions: protein concentration: 200 nM; construct: GST-full length.
T1 sequence: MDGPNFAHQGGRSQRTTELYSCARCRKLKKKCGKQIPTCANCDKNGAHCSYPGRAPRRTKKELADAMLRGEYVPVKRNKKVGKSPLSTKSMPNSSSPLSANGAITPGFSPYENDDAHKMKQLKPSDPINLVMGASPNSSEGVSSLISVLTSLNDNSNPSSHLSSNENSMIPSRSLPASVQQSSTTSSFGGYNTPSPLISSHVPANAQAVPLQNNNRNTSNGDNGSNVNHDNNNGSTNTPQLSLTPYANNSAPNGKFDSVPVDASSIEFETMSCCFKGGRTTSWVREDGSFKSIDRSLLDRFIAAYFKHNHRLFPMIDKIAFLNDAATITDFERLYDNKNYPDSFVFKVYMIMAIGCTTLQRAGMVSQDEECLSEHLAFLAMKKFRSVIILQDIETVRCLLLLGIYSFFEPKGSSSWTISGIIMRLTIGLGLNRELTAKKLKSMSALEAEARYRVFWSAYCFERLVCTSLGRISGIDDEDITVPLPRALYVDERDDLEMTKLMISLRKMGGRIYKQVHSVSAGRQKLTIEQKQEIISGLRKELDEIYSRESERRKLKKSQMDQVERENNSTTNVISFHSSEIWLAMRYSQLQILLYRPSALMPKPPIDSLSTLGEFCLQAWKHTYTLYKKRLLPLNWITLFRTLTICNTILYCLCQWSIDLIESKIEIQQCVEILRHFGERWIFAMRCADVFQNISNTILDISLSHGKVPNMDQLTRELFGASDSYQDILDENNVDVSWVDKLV
Summary of the method: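 Bound GST-tagged yeast transcription factors, applied at about 100-200 nM to double-stranded universal all-10-mer Agilent arrays, were detected with fluorescent anti-GST. Scans were normalised with masliner. A modified Wilcoxon-Mann-Whitney statistic, the E-score, was assigned to each ungapped eight-base word pooled with its reverse complement by the Universal PBM Analysis Suite.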

Row | Sequence | PBM E-score
1 | CGAAGATC | -0.0335
2 | TGACTAAA | -0.163
3 | CTTGATGA | 0.0228
4 | CTAAATAC | 0.0967
5 | TGGGCCCA | -0.136
6 | TAACCAAA | -0.149
7 | AAAAGGCT | -0.0922
8 | CCGACATA | 0.297
9 | ACTAGGTA | -0.25
10 | AGTCTCAA | -0.108
11 | GAGTGGCA | -0.141
12 | ACTACCTG | -0.13
13 | GTACACAC | 0.0547
14 | ACAAGGCA | -0.129
15 | CAGCCACG | -0.0791
16 | AAACTCTT | -0.233
17 | CTAGTGCC | 0.256
18 | GACAAGGA | -0.0928
19 | CCTTGGAA | -0.0512
20 | GTGGCGGA | 0.279
21 | AGGATACA | -0.238
22 | AATCCGTC | 0.179
23 | GAACGGGA | 0.247
24 | ACCCAAGC | -0.111
25 | CGAAGAAG | -0.145

Row | Sequence | PBM E-score
26 | AGGGATTA | 0.0519
27 | AGAAATCC | 0.0394
28 | CCTGAGCA | -0.127
29 | ACTACCAC | -0.111
30 | GCACCGCC | 0.377
31 | AGCAGGGC | -0.115
32 | ACGATCTG | -0.179
33 | CGCCCTGA | -0.099
34 | CTGGTATC | -0.254
35 | GCATGAAA | -0.227
36 | GATCGGTA | 0.306
37 | AAGACATT | -0.267
38 | ACATGGAG | -0.0962
39 | GAGCTCCA | -0.203
40 | ACAAGTGT | -0.136
41 | ATAATTAA | -0.0125
42 | AGCATCAC | -0.133
43 | CACAAACC | -0.197
44 | ATGCACGA | 0.0374
45 | AACTACAT | -0.269
46 | CCTCCAGG | -0.318
47 | ACTTCTAT | -0.24
48 | CTCAGGAC | -0.0868
49 | AAGAACCG | 0.262
50 | CATCTCTA | -0.0228

Row | Sequence | PBM E-score
51 | ACATTCCT | -0.208
52 | AGCCGAAC | -0.0834
53 | CCCCCAAG | -0.233
54 | CCAGCACG | -0.229
55 | GCAACCTA | -0.349
56 | GCGGTTCA | 0.0363
57 | GACCGCAA | 0.248
58 | CGCCGATC | 0.363
59 | TGGGACAA | -0.192
60 | GCCAAAAA | -0.0844
61 | ATAAACAC | 0.165
62 | ACGAACAG | -0.198
63 | TAACAGCA | -0.0283
64 | ACGGTTAG | -0.0257
65 | GCTGAGGA | -0.0641
66 | AGGAATGC | -0.266
67 | AATCCGAG | 0.00616
68 | AACAGCAC | 0.0322
69 | CTTTGACC | 0.117
70 | TCTTTCAA | -0.0737
71 | GGCCTTGA | 0.0758
72 | GCATCGGA | 0.27
73 | CGGATTCA | 0.179
74 | ACGTACCA | -0.172
75 | AATCTCTC | -0.145

Row | Sequence | PBM E-score
76 | ACCACTCG | -0.142
77 | CCCTCCTC | -0.276
78 | GTAGTGGA | -0.0856
79 | AGTCTTTG | -0.363
80 | AAATAAGT | -0.098
81 | ATAGCAGC | 0.0423
82 | ACCCTAGC | 0.00919
83 | ATACATAC | -0.0979
84 | CAAGTTTA | -0.0173
85 | GCGGTTAC | 0.275
86 | GATCGAAC | -0.0588
87 | CCCAGTGC | -0.118
88 | GTTTTGCA | -0.107
89 | GAGCTTCA | -0.0106
90 | AGTTTCTG | -0.117
91 | CGAACGAA | -0.0975
92 | AGCTCTCA | -0.109
93 | CTAAGCAA | -0.0185
94 | GTTTAGTA | -0.0646
95 | AAGCTCTG | -0.32
96 | ACGAATTG | -0.124
97 | CCACCTGC | -0.227
98 | CAGTCATC | -0.027
99 | CGTACCGA | 0.205
100 | CCTTTCTC | -0.297

Row | Sequence | PBM E-score
101 | CTGCATCC | 0.0192
102 | ACAAACAA | -0.0945
103 | ATATATTC | 0.158
104 | CCTAATTA | -0.183
105 | CCCCCATC | -0.0751
106 | AATCCGGC | 0.198
107 | GTCCTTAA | -0.0925
108 | TAGGTCAA | -0.135
109 | CGTAATAG | -0.0468
110 | TCCGTCCA | 0.249
111 | ATAGTCTA | -0.0767
112 | CGTCATGA | -0.0111
113 | ATACCGAG | 0.224
114 | AATTAGGC | -0.0196
115 | CGTGAACA | -0.0606
116 | ATATGTGC | 0.168
117 | CTCATTTC | -0.154
118 | ACTGGTAC | -0.031
119 | ATTTGCCC | 0.147
120 | GGGTATTA | 0.243
121 | ACCCGAAA | -0.00369
122 | ACGAGGTC | -0.153
123 | GCGGGTAA | 0.124
124 | AGCATTAT | -0.206
125 | CATAGAGG | -0.173

Row | Sequence | PBM E-score
126 | GGCCGTAC | 0.23
127 | TACATCAA | 0.0251
128 | CCGACTCG | 0.177
129 | AGATTTGG | -0.12
130 | CACAACCA | 0.0518
131 | GAGTGGGC | 0.0251
132 | AATTCTGC | -0.0466
133 | AAGCGGCG | 0.349
134 | AATAGTAT | 0.0601
135 | CAATGAAG | -0.163
136 | CTATGTTC | -0.013
137 | AACAGAGA | -0.0526
138 | ATGGGGCC | 0.00088
139 | CCATCAAC | -0.0784
140 | AGACCACT | -0.265
141 | AATAAGTC | 0.0443
142 | GCCAGCGA | -0.203
143 | ACACTAGC | -0.238
144 | AACTTATT | 0.0716
145 | AACGGTTA | 0.0607
146 | CGGACACG | 0.232
147 | AACTGTAG | -0.188
148 | AAGTATCC | 0.00528
149 | CGGGGGTC | 0.26
150 | AAATACAA | -0.0203

Row | Sequence | PBM E-score
151 | GCCTGTAC | -0.163
152 | CACTTCGC | -0.171
153 | CATGAAAA | -0.173
154 | GGGAACCC | 0.0613
155 | CGACGAGA | -0.0598
156 | CCGGCTCG | 0.167
157 | GTGCTACA | -0.0525
158 | CATCTGCA | -0.164
159 | GGATCCCC | 0.165
160 | CTTGGCCC | 0.0302
161 | AGCTTGTG | -0.264
162 | GTTGCCCA | -0.0197
163 | AGGATGAG | -0.289
164 | ATTTAGCA | -0.104
165 | TAGCAGAA | -0.165
166 | TTCGAAAA | -0.112
167 | CCTCTGGC | -0.0454
168 | AGGGAGAC | -0.0822
169 | ACGTGGAA | -0.111
170 | AAGTAGTA | -0.15
171 | ATACTCCC | 0.339
172 | ACCAAGAA | -0.104
